Assay results reported in patent publication US20250262222A1, “HETEROCYCLIC COMPOUNDS, COMPOSITIONS THEREOF, AND METHODS OF TREATMENT THEREWITH” (BeiGene Switzerland GmbH, priority 2022, published 2025).

What was measured:
[1] = molecular target: GST-tagged GDP-loaded WT KRAS (amino acids 1-169) (Homo sapiens, UniProt P01116); assay: biochemical
[2] = molecular target: GST-tagged GDP-loaded KRAS G12V (amino acids 1-169) (Homo sapiens, UniProt P01116, G12V); assay: biochemical

Compound	IC50 [1] [nM]	IC50 [2] [nM]
C#Cc1c(F)ccc2cc(O)cc(-c3nc4c5c(nc(OC[C@@H]6C[C@@H](F)CN6C)nc5c3F)N3CCOC[C@H]3CO4)c12 [Example 7, 5-ethynyl-6-fluoro-4-((S)-1-fluoro-11-(((2S,4R)-4-fluoro-1-methylpyrrolidin-2-yl)methoxy)-5a,6,8,9-tetrahydro-5H-4,7-dioxa-3,9a,10,12-tetraazabenzo[4,5]cyclohepta[1,2,3-de]naphthalen-2-yl)naphthalen-2-ol]	1.9	1.1
C#Cc1c(F)ccc2cc(O)cc(-c3nc4c5c(nc(OCC6(CN7CCOCC7)CC6)nc5c3F)N3CCOC[C@H]3CO4)c12 [Example 8, (S)-5-ethynyl-6-fluoro-4-(1-fluoro-11-((1-(morpholinomethyl)cyclopropyl)methoxy)-5a,6,8,9-tetrahydro-5H-4,7-dioxa-3,9a,10,12-tetraazabenzo[4,5]cyclohepta[1,2,3-de]naphthalen-2-yl)naphthalen-2-ol]	1.1	0.89
C#Cc1c(F)ccc2cc(O)cc(-c3nc4c5c(nc(OCC67COC(C6)C7)nc5c3F)N3CCOC[C@H]3CO4)c12 [Example 9, (S)-4-(11-((2-oxabicyclo[2.1.1]hexan-4-yl)methoxy)-1-fluoro-5a,6,8,9-tetrahydro-5H-4,7-dioxa-3,9a,10,12-tetraazabenzo[4,5]cyclohepta[1,2,3-de]naphthalen-2-yl)-5-ethynyl-6-fluoronaphthalen-2-ol]	18	24
N#Cc1c(N)sc2c(F)ccc(-c3c(Cl)c4c5c(nc(OC[C@@]67CCCN6C[C@H](F)C7)nc5c3F)N3C5CCC3(COC5)CO4)c12 (stereo partly drawn) [Example 15, 2-amino-4-(11-chloro-9-fluoro-7-(((2R,7aS)-2-fluorotetrahydro-1H-pyrrolizin-7a(5H)-yl)methoxy)-3,4-dihydro-1H,13H-4,13a-ethano[1,4]oxazino[3′,4′:3,4][1,4]oxazepino[5,6,7-de]quinazolin-10-yl)-7-fluorobenzo[b]thiophene-3-carbonitrile]	2.1	2.3
Nc1cc(Cl)c(C(F)(F)F)c(-c2nc3c4c(nc(OC[C@@]56CCCN5C[C@H](F)C6)nc4c2F)N2CCOC[C@@H]2CCO3)c1 [Example 16, 3-chloro-5-((S)-1-fluoro-12-(((2R,7aS)-2-fluorotetrahydro-1H-pyrrolizin-7a(5H)-yl)methoxy)-5,6,6a,7,9,10-hexahydro-4,8-dioxa-3,10a,11,13-tetraazabenzo[4,5]cycloocta[1,2,3-de]naphthalen-2-yl)-4-(trifluoromethyl)aniline]	1.8	1.2
N#Cc1c(N)sc2c(F)ccc(-c3c(Cl)c4c5c(nc(OC[C@@]67CCCN6C[C@H](F)C7)nc5c3F)N3CCOC[C@@H]3CCO4)c12 [Example 18]	0.98	0.91
Nc1cc(Cl)c(C(F)(F)F)c(-c2nc3c4c(nc(OC[C@@]56CCCN5C[C@H](F)C6)nc4c2F)N2CCOCCC2CO3)c1 (stereo partly drawn) [Example 21, 3-chloro-5-(1-fluoro-12-(((2R,7aS)-2-fluorotetrahydro-1H-pyrrolizin-7a(5H)-yl)methoxy)-5,5a,6,7,9,10-hexahydro-4,8-dioxa-3,10a,11,13-tetraazanaphtho[1,8-ab]heptalen-2-yl)-4-(trifluoromethyl)aniline]	2.2	1.8
C#Cc1c(F)ccc2cc(O)cc(-c3nc4c5c(nc(OC[C@@]67CCCN6C[C@H](F)C7)nc5c3F)N3CCOCCC3CO4)c12 (stereo partly drawn) [Example 22, 5-ethynyl-6-fluoro-4-(1-fluoro-12-(((2R,7aS)-2-fluorotetrahydro-1H-pyrrolizin-7a(5H)-yl)methoxy)-5,5a,6,7,9,10-hexahydro-4,8-dioxa-3,10a,11,13-tetraazanaphtho[1,8-ab]heptalen-2-yl)naphthalen-2-ol]	0.67	0.91
